This is an account of results in ChEMBL document CHEMBL4888484, “Replenishing the malaria drug discovery pipeline: Screening and hit evaluation of the MMV Hit Generation Library 1 (HGL1) against asexual blood stage Plasmodium falciparum ,using a nano luciferase reporter read-out” (2022).

Molecules are shown by their SMILES. Screen size: about 150,000 compounds; about 540 (0.36%) showed an effect of 50% or more. The list shows a part of the results.

This experiment deals with Plasmodium falciparum. Put plainly: Primary screen in NF54 nanoGlo assay, in single point, at 2uM, 72h; a lower Z score goes with more inhibition. Format: functional, Erythrocyte. The following applies: timepoint 72 hour.
In the case of `O=C(NC[C@H]1[C@H](c2ccccc2)C1(F)F)c1coc(C2CCC2)n1`, the “% Inhibition” value is -1% and the Z score is 0.21.
On the same counts, the results for `Cc1cccc(CN(C(=O)C(=O)N2CCCC2)C(C)C)c1` are -2% and 0.41.
On the same counts, the results for `c1cc2c(cc1OCc1csc([C@@H]3CCCO3)n1)CCC2` are -8% and 1.46.
On the same counts, the results for `CN(Cc1ccccc1)C(=O)C[C@@H]1CCNC[C@@H]1Cc1cc(-c2ccccc2)on1` are 31% and -3.51.
Take `CN1CCOC(C(=O)N2CCC(OCCCc3ccccc3)C2)C1` (stereo not given): the “% Inhibition” value was -6% and the Z score was 0.63.
On the same counts, the results for `O=C(Cn1cccnc1=O)N[C@H]1CCc2ccccc21` are -16% and 3.1.
On the same counts, the results for `CC(C)c1cccc(/N=C(\NCc2ccncc2)NC(=O)c2ccccc2)c1` are -10% and 1.76.
On the same counts, the results for `Cc1ccccc1N1CCN(C(=O)[C@H]2CC(=O)N(c3cnn(C)c3)C2)CC1` are -2% and 0.2.
As to `CCOC1(C)CCN(C[C@H](O)c2ccc(C(F)(F)F)cc2)CC1`, the “% Inhibition” value turned out to be 20% and the Z score was -3.55.
On the same counts, the results for `COC(=O)c1c(NCC(O)COCC2CC2)ncnc1NCC(O)COCC1CC1` (stereo not given) are -4% and 0.42.
On the same counts, the results for `O=C(Nc1cc(Br)cnc1OCC(F)(F)F)c1ccc2c(c1)OCCO2` are -4% and 0.69.
On the same counts, the results for `O=C(NCc1ccc(F)cc1)N(Cc1cccs1)C1CCOCC1` are -1% and 0.12.
Consider `CCC(c1cccs1)N1C(=O)[C@H]2CN(S(=O)(=O)c3ccc(C)cc3C)C[C@H]2C1=O` (stereo not given in full), for which the “% Inhibition” value was -3% and the Z score came to 0.34.
On the same counts, the results for `c1cc(-c2noc(C3CC3C3CC3)n2)ns1` (stereo not given) are -10% and 1.45.
On the same counts, the results for `CCc1noc(C(C)NC2CCN(C(C)=O)CC2CC)n1` (stereo not given) are -3% and 0.44.
On the same counts, the results for `CN1C(=O)CCC12CCN(Cc1cnc(-c3cccc4ccccc34)nc1)CC2` are -12% and 1.18.
With `CCc1nc2cc(-c3noc(Cc4ccc(Cl)cc4)n3)ccc2o1`, the “% Inhibition” value was found to be 49% and the Z score is -4.76.
On the same counts, the results for `CC(C)(CCO)CNCc1ccc(F)cn1` are -18% and 2.41.
On the same counts, the results for `CC(C)Cc1c[nH]c(C(=O)NC[C@H]2CCCCS2(=O)=O)c1` are -12% and 2.13.
Take `O=C(c1csc(S(=O)(=O)NCc2ccc3c(c2)OCO3)c1)N1CCCCC1`: the “% Inhibition” value is listed as -6% and the Z score came to 0.81.
On the same counts, the results for `COc1ccc(C(=O)Nc2cc(-c3ccco3)no2)cc1OC` are -1% and 0.12.
Consider `COC(=O)C1CCC(N[C@H](c2nnc3ccccn23)C(C)C)CC1` (stereo not given in full), for which the “% Inhibition” value is reported as -2% and the Z score is reported as 0.28.
For the molecule `Cc1cc2ncc(NS(=O)(=O)c3ccc4c(c3)CCCC4)cn2n1`, the “% Inhibition” value was -25% and the Z score amounted to 3.16.
Consider `CC1CN(S(=O)(=O)C(C)C)CCC1NCC=Cc1ccccc1` (stereo not given), for which the “% Inhibition” value was -3% and the Z score came to 0.61.
For `C#CC(NC(=O)CNC(=O)C(C)(C)C)C1CCOC1` (stereo not given), the “% Inhibition” value is on record as -3% and the Z score is 0.34.
Regarding `COc1cccc(C(=O)Nc2nc(C(F)(F)F)c(-c3ccccn3)s2)c1`, the “% Inhibition” value is reported as -25% and the Z score is 2.65.
On the same counts, the results for `Cc1noc(C)c1Cc1c(C(=O)N2CCC(C)(c3noc(-c4cccnc4)n3)CC2)noc1C` are -5% and 0.69.
On the same counts, the results for `Cn1cnnc1CN1CCN(Cc2ccccc2)[C@H]2CS(=O)(=O)C[C@H]21` are -5% and 0.66.
Consider `CCn1c([C@H]2CCS(=O)(=O)C2)nnc1N1CCOC2(CCCC2)C1`, for which the “% Inhibition” value came to 5% and the Z score is -0.84.
For `CC(=O)c1ccc(-n2c(C)cn(C[C@H](O)COc3ccc(Cl)cc3Cl)c2=O)cc1`, the “% Inhibition” value was -11% and the Z score is 1.37.
On the same counts, the results for `COCC1(CNC(=O)c2cnn(C)c2S(N)(=O)=O)CCCCC1` are -16% and 1.71.
On the same counts, the results for `O=C(c1cc(F)cc(F)c1)N1CCC(CCOc2ccccc2)CC1` are -7% and 1.28.
Regarding `COc1cccc(CNC(=O)CN2C(=O)C(C)(C)c3cc(Cl)ccc32)c1`, the “% Inhibition” value is -5% and the Z score was determined as 0.8.
On the same counts, the results for `CCCCn1ncc(NC(=O)N2CCOCC2C2CCCO2)c1C` (stereo not given) are 1% and -0.17.
On the same counts, the results for `Cc1ccnc2nc(-c3nc(-c4ccc(=O)n(C)c4)no3)nn12` are 10% and -1.44.
On the same counts, the results for `N#Cc1cncc(CNS(=O)(=O)C[C@H]2CCCC(F)(F)C2)c1` are -5% and 1.03.
With `Cn1cc(-c2ncnn2-c2ccc(OC(F)(F)F)cc2)c(=O)[nH]c1=O`, the “% Inhibition” value was -9% and the Z score came out at 1.1.
On the same counts, the results for `O=C(NC1CC1)c1ccc(S(=O)(=O)NCc2cnn3cccnc23)cc1` are 5% and -1.03.
On the same counts, the results for `COc1ccc(-c2onc(C)c2C(=O)N2CCC(Cc3ccc4c(c3)OCO4)CC2)cc1` are -7% and 1.32.
On the same counts, the results for `CC(C)c1cc(C(=O)O[C@H]2C(=O)OCC2(C)C)n[nH]1` are -12% and 1.93.
With `COC(=O)C1(CNCc2ccnn2C)CCCCC1`, the “% Inhibition” value is -7% and the Z score came to 1.09.
On the same counts, the results for `O=C(NC1CCC(F)C1)c1ccsn1` (stereo not given) are -12% and 1.19.
With `Cc1nnc(-c2nnc(NCc3ccccc3Cl)c3ccccc23)o1`, the “% Inhibition” value is -10% and the Z score turned out to be 1.17.
On the same counts, the results for `O=S(=O)(Cc1ccccc1)N1CC[C@H](c2noc(-c3cccnc3)n2)C1` are -7% and 0.86.
As for `Cn1cc(NC(=O)c2cc3ccccc3o2)ccc1=O`, the “% Inhibition” value is listed as -4% and the Z score was determined as 0.73.
Turning to `CC[C@H](C)Cc1nc(N)c(C#N)c(-c2ccc(N(C)C)cc2)c1C`, the “% Inhibition” value is -9% and the Z score stood at 1.23.
As for `COC(=O)c1ccc(NC(=O)Cn2nc3nc(N4CCCC4)ccn3c2=O)cc1`, the “% Inhibition” value is given as -20% and the Z score came to 2.18.
On the same counts, the results for `CCCN(CCC)S(=O)(=O)c1ccc2c(c1)OC[C@@H](C(=O)N1CCCC1)O2` are -17% and 2.91.
With `CCN(C[C@H]1CCCCO1)C(=O)Nc1cccc2[nH]nnc12`, the “% Inhibition” value was -1% and the Z score was found to be 0.21.
On the same counts, the results for `Cc1nn(CC(F)(F)F)c(C)c1[C@H](C)c1nc(COCC(F)(F)C(F)F)no1` are -2% and 0.25.
As to `CC(C)c1cc(C(=O)N2C[C@H]3CCN(C(=O)N4CCOCC4)[C@H]3C2)no1`, the “% Inhibition” value is -11% and the Z score is on record as 1.56.
On the same counts, the results for `Cc1cccc(C(=O)N(C)C[C@@H](C)O)n1` are -9% and 1.15.
On the same counts, the results for `Cn1nc(-c2ccc(F)c3cccnc23)nc1N1CCOCC1` are 1% and -0.23.
On the same counts, the results for `CN(C)C(=O)CN(C)c1ncc(Cl)cc1F` are -12% and 1.33.
For the molecule `Cn1cc(NC(=O)c2[nH]nc3c2CCCCC3)cn1`, the “% Inhibition” value is -17% and the Z score was determined as 1.97.
As for `C#CCCC1(CCC(=O)N2CC(c3ccc(F)cc3)C2)N=N1`, the “% Inhibition” value was found to be 6% and the Z score is on record as -0.75.
On the same counts, the results for `CNC(=O)[C@@H]1CC[C@](C)(C(=O)NCCCNc2cccnc2)C1(C)C` are -8% and 1.35.
Consider `Cc1cc(C(=O)N(C)Cc2ccns2)ns1`, for which the “% Inhibition” value is on record as -14% and the Z score worked out at 2.7.
On the same counts, the results for `COCCn1cc(NC(=O)N(C)C[C@H](O)C2CC2)cn1` are -15% and 2.01.
On the same counts, the results for `COC(=O)CNC(=O)N1CCN(Cc2nc3cc(C(=O)N(C)C)ccc3o2)CC1` are 32% and -3.6.
On the same counts, the results for `CN(CCc1ccccc1)C[C@@H]1OC[C@H](NCc2nccn2C)[C@H]1O` are 0% and 0.01.
For the molecule `Clc1oc2ccccc2c1Cn1cnc(C2CC2)n1`, the “% Inhibition” value was 3% and the Z score is on record as -0.58.
On the same counts, the results for `CC(=O)N(C)CCc1noc(C2CN(Cc3ccc(F)cc3F)C2)n1` are -3% and 0.41.
On the same counts, the results for `C[C@H]1CN(C(=O)c2ccnc3[nH]c(CC4CC4)nc23)C2(CCC2)CO1` are 1% and -0.21.
On the same counts, the results for `C[C@H]1CCCN(C(=O)c2ccc3c(c2)nc2n3CCN(C3CCCCC3)C2=O)C1` are 0% and 0.04.
On to `O=S(=O)(c1ccc2c(c1)CCC2)N1CC[C@@]2(CO)CN(Cc3ccccc3)C[C@H]2C1`, for which the “% Inhibition” value was -9% and the Z score turned out to be 1.04.
On the same counts, the results for `c1cc(CNc2nccn3nccc23)ccn1` are -18% and 2.3.
With `CCc1ccc(C(=O)NCCC[C@H]2CCOC2)[nH]1`, the “% Inhibition” value amounted to 10% and the Z score is on record as -1.3.
On the same counts, the results for `CC(C)[C@H](C)N(CC(F)(F)F)C(=O)Cc1cnn(C)c1` are 1% and -0.1.
On the same counts, the results for `O=C(O)COc1ccccc1CN1C[C@H]2CC[C@H]1C2` are -14% and 2.48.
Regarding `O=C(c1cscn1)N1CC[C@H]2[C@H](CCC(=O)N2CCc2ccccn2)C1`, the “% Inhibition” value is listed as -11% and the Z score stood at 1.71.
Regarding `N#Cc1ccc(C=Cc2nc(=O)cc[nH]2)cc1`, the “% Inhibition” value is on record as -4% and the Z score was determined as 0.58.
On the same counts, the results for `C[C@H](Oc1ncccc1C(=O)NCC1(CO)CCC1)C(F)(F)F` are -17% and 1.81.
With `COc1ccc(F)cc1[C@H]1CC(=O)NCc2nc(N)sc21`, the “% Inhibition” value is on record as -4% and the Z score came out at 0.51.
Consider `CC1=C(C(=O)c2ccccc2)[C@@](NC(=O)CC(C)C)(C(F)(F)F)C(=O)N1CCc1ccccc1`, for which the “% Inhibition” value is reported as -11% and the Z score is 1.74.
On the same counts, the results for `CCC(O)C(C)NC(=O)[C@H]1C[C@]1(C(=O)NC(C)C(O)CC)C(C)C` (stereo not given in full) are -12% and 1.73.
As to `CCn1nccc1CCN1CC(=O)NC2CCCCC21` (stereo not given), the “% Inhibition” value is on record as -2% and the Z score is listed as 0.22.
On the same counts, the results for `CN1CCC(CNC(=O)NC[C@@H]2Cc3ccccc3CO2)CC1=O` (stereo not given in full) are -4% and 0.63.
On the same counts, the results for `COc1cccc(-c2cn(CCS(=O)(=O)N(C)C)nn2)n1` are -4% and 0.56.
For `O=C1C[C@H](c2ccc(F)c(Br)c2)c2cnn(Cc3ccco3)c2N1`, the “% Inhibition” value is -11% and the Z score stood at 1.37.
On the same counts, the results for `COC[C@H]1CCCN1S(=O)(=O)NCCOc1ccccc1F` are -8% and 1.44.
On to `CN(C)[C@H]1CCCN(C(=O)NCc2nc(Cc3cccs3)no2)CC1`, for which the “% Inhibition” value is -12% and the Z score turned out to be 2.12.
`CCNc1nc(C(=O)N2CC(=O)N(CCOC)C2)cs1`: the “% Inhibition” value is -7% and the Z score is reported as 0.9.
With `CC(C)c1csc(NC(=O)[C@H](C)n2cccn2)n1`, the “% Inhibition” value is -9% and the Z score is given as 1.5.
Take `CC(C)N1C(=O)CC(C(=O)NCCOCC(F)(F)F)C1c1ccc(Cl)c(F)c1` (stereo not given): the “% Inhibition” value is reported as -5% and the Z score is on record as 0.8.

The term % Inhibition denotes the change of the read-out against control, counted positive when it falls.
